This is an account of results in publication PMC3227635.

Results are given in words; binding and its absence hold for the method and conditions named. Binding seen in cells or lysates may run through a third protein. Some results given as binding are weak or reduced against the parent protein; the word gives no strength. For part of these data: Tags and fused reporters may be left off the sequences shown.

Common to all, as to assay: pull-down
Assay [1] concerns the target His6-MoaD1 (M. bovis MoaD1 with an N-terminal His6-tag) (M. bovis) (UniProt L7N6B4).
Assay [2] concerns the target His6-MoaD2 (M. bovis MoaD2 with an N-terminal His6-tag) (M. bovis).
Assay [3] deals with T1, His6-CysO (M. bovis CysO with an N-terminal His6-tag) (M. bovis) (UniProt P0A647).
T1 sequence: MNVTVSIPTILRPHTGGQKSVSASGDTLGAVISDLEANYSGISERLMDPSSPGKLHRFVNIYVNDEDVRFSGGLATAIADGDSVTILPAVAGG

Turning to “MBP-MoeBR (M. tuberculosis MoeBR with an N-terminal MBP-tag) (from UniProt A5U7D1 1-389) (enzyme)”, the binding result in assay [1] is on record as “binds”; in assay [2], “binds”; in assay [3], “no binding”.

On to “MBP-MoeZR (M. tuberculosis MoeZR with an N-terminal MBP-tag) (from UniProt P9WMN7 1-392) (enzyme)”, for which the binding result in assay [1], in assay [2] and in assay [3] was “binds” in each case.
